According to article PMC4336329 (PLoS ONE, 2015):
The campaign covered roughly 310,000 compounds. About 2,200 (0.71%) showed an effect of 50% or more. Effects have a minus sign here. The list shows a part of the results.

What follows are compounds tested against human ether-à-go-go-related gene (hERG) potassium channel (human, UniProt Q12809) (assay: primary screen, population patch clamp on CHO cells stably expressing hERG).
human ether-à-go-go-related gene (hERG) potassium channel, sequence (Q12809 whole entry, looked up): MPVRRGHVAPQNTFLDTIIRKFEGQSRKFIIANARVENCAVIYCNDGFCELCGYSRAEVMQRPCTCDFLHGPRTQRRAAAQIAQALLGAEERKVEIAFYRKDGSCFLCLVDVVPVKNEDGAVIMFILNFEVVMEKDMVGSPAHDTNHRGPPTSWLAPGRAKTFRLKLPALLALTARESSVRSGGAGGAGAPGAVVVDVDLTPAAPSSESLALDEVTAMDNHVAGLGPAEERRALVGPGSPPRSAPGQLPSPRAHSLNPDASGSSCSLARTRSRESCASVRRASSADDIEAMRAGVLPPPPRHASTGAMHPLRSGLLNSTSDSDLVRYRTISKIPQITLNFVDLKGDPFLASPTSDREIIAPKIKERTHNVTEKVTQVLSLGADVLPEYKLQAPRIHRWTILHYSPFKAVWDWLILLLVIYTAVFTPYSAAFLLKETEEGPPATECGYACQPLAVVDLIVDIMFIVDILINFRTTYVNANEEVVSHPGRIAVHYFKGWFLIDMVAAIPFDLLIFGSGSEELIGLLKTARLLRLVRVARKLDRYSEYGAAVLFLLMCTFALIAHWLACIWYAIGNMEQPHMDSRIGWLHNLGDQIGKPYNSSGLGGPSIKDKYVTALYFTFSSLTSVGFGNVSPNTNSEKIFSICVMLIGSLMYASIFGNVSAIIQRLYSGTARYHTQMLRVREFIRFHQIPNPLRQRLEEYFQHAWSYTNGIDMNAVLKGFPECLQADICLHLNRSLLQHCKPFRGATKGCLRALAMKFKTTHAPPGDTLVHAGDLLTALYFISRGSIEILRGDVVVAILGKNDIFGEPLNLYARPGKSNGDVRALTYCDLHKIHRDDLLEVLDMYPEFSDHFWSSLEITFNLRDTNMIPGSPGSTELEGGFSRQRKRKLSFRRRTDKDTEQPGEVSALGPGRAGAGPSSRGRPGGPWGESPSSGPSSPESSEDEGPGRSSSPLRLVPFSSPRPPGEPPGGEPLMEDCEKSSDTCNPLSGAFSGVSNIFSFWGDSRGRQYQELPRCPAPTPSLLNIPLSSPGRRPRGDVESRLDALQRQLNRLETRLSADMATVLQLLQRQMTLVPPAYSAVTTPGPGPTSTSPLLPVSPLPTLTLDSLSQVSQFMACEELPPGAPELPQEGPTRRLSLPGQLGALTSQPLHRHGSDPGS

Row | Structure (SMILES) | hERG current change (%, negative = inhibition) at 1uM [%]
1 | COC(=O)c1ccccc1NC(=O)c1cc2ccccc2o1 | 10.8
2 | O=C(CN1CCN(Cc2ccc(F)cc2Cl)C1=O)NCCc1ccccc1 | 1.85
3 | CCN1CCN(Cc2ccc(NC(=O)c3cc(NC(=O)C4=NN(c5ccccc5)C(=O)C4)cc(OC)c3)cc2C(F)(F)F)CC1 | 8.91
4 | O=C(c1cc([N+](=O)[O-])ccc1Cl)N1CCN(c2ccc([N+](=O)[O-])cc2)CC1 | -58.8
5 | O=C1Nc2ccccc2C12OCCS2 (centres unmarked) | 7.52
6 | COCC(=O)N1CCC(Oc2ccc(C(=O)NC3CCOC(C)(C)C3)cc2)CC1 (centres unmarked) | 12.5
7 | O=C(Cc1ccccc1[N+](=O)[O-])N1CCc2ccccc2C1 | 7.61
8 | O=C(C1CCCN1S(=O)(=O)c1ccc(Cl)c(Cl)c1)N1CCOCC1 (centres unmarked) | 7.47
9 | CCOc1cc(N2CCOCC2)c(OCC)cc1NC(=O)Cc1cccc2ccccc12 | 13.2
10 | CCCN(CCC)C(=O)CC(c1ccc(F)cc1)c1ccco1 (centres unmarked) | -1.3
11 | O=[N+]([O-])c1ccc(C2OCCO2)cc1CS(=O)(=O)c1ccccc1 | 4.14
12 | O=S(=O)(Cc1ccccc1Cl)NCCc1ccccc1 | 9.64
13 | Cc1cccc(N2CCN(S(=O)(=O)c3ccc4c(c3)NC(=O)CO4)CC2)c1C | 6.92
14 | Clc1ccc(CN2CCN(c3ncccn3)CC2)cc1Cl | 10.8
15 | O=c1nc(N2CCCCC2)nc2n1CCO2 | 12.5
16 | Cc1ncc(CO)c(/C=N/NC(=O)c2cc3c(s2)CCCC3)c1O | 5.74
17 | CCC(C(=O)NCC1CCCO1)N(C(=O)c1snc(C(N)=O)c1N)c1ccc(Cl)cc1 (centres unmarked) | 17.7
18 | Cc1cccc(-c2nnc(SCCC(=O)N3CCOCC3)o2)c1 | 15.7
19 | CN1CCN(CCCNC(=O)c2cn(C3CCCCC3)c(=O)c3c2c2ccccc2n3C)CC1 | 7.28
20 | CC(=O)Nc1ccc(OC(F)(F)Cl)cc1 | 7.4
21 | COc1ccc(Nc2cc(Nc3cc(OC)c(OC)c(OC)c3)ncn2)cc1 | 1.96
22 | CCc1ccc(N=CC23c4ccccc4C(c4ccccc42)C2C(=O)N(c4ccc(OC)cc4)C(=O)C23)cc1 (centres unmarked) | 9.99

Row | Structure (SMILES) | hERG current change (%, negative = inhibition) at 1uM [%]
23 | COc1ccc(C(=O)c2nc3ccccc3n2C(C)C)cc1OC | 10.1
24 | O=C(CCNC(=O)c1ccco1)Nc1ccc(F)c(Cl)c1 | 15.7
25 | Cc1nnc(N(C)C(=O)Cc2ccc3c(c2)OCO3)s1 | 11.3
26 | C/C(=N\O)c1ccc2c(c1)CC(C)O2 (centres unmarked) | 13.6
27 | C#CCN(Cc1ccccc1)S(=O)(=O)C=C | 4.93
28 | C#CCOc1ccc(/C=C2/C(=O)N(c3cccc(C(=O)O)c3)N=C2C)cc1OC | 3.91
29 | COc1ccc(/C=N/NC(=O)c2cc(C(C)(C)C)[nH]n2)cc1COc1ccc(F)cc1F | 1.56
30 | COc1ccc(C(=O)NCC(=O)OCC(=O)Nc2ccc(C)c(S(=O)(=O)N(C)C)c2)cc1OC | 8.08
31 | CCn1c(SCc2ccc(C(=O)OC)o2)nnc1-c1c[nH]c2ccccc12 | -1.17
32 | CS(=O)(=O)c1ccc(Cl)c(NC(=O)CSc2nnc(C3CC3)n2C2CC2)c1 | 8.37
33 | Cc1ccc(C)c(N2CCN(C(=O)Cc3ccc(-n4c(=O)[nH]c5ccsc5c4=O)cc3)CC2)c1 | -12.7
34 | O=C(NCC1CCCO1)C1CC1(c1ccccc1)c1ccccc1 (centres unmarked) | 8.22
35 | N/C(Cc1ccc(Cl)c(Cl)c1)=N\OC(=O)c1ccc(Br)o1 | 14.8
36 | CN(NC(=O)c1ccc(Cl)cc1Cl)C1=NS(=O)(=O)c2ccccc21 | 4.9
37 | COc1ccc(C(=O)NCc2cc3ccccc3n2C)cc1 | 23.4
38 | N/C(=N\OC(=O)CCCN1C(=O)c2ccccc2C1=O)c1ccc(Cl)cc1 | -0.806
39 | O=C(COC(=O)c1cc([N+](=O)[O-])ccc1N1CCOCC1)NCc1ccc(Cl)cc1Cl | -27.5
40 | CCc1nnc(NS(=O)(=O)c2ccc(NC(=S)NC(=O)/C=C/c3ccc(C(C)C)cc3)cc2)s1 | 5.2
41 | CC(O)C(=O)N/N=C/c1ccccc1C(=O)O (centres unmarked) | 11.8
42 | Cc1noc(C)c1COc1ccccc1C(=O)N(C)CC(=O)Nc1ccc(Cl)c(Cl)c1 | 2.38
43 | O=C(NCc1cccnc1)Nc1ccc(Cl)c(Cl)c1 | 11.6
44 | CCN1CCN(CCC(=O)Nc2ccc(Br)c(C)c2)CC1.Cl | -3.9
